# Laboratory results taken from the supplement of paper PMC8728848.
# The other results are listed elsewhere or left out.
# B1: CC1G-11630 (Coprinopsis cinerea), A8P462 (protein)
# chain: MTTEAKIKLKAVVYWELVFDYDNSSNTGEITQSYTVKISQTSTRSTFASEVSTTTIDTLTKNNQEVDVGASYGAISANVSASWEHSEEVNNMLEKTTQTSTEDTYTVETEETRSYTIGPGGMLSLFQKHFSGPGMHVAFDVFTTDLELAKERTEIDIDVDVEAIRFVREIRVVYTDIMSEAPGDHVREINGKNPDINYGFNGKFVWLVPEQTRKTAQALTNVEFVSQAESDDRYWDLAAGAGGSNRYLIPVYDTNNKDKIYELALWRSDSYITHDKVKAAGWSGTTGDINSGRGGTYLNLVWKTRHAY
# Legend:
# Assay in all cases: glycan array binding signal (z-score within array); higher = stronger binding
# Settings in all cases: glycan notation: IUPAC condensed, linker removed
# [1] = molecular target: Gal(b1-3)GlcNAc(b1-2)Man(a1-3)[Gal(b1-3)GlcNAc(b1-2)Man(a1-6)]Man(b1-4)GlcNAc(b1-4)GlcNAc
# Outline: (§1)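 Negative Z-scores can be read as non-binding. The Z-score is calculated within each array and then averaged across arrays of one protein sequence at different concentrations or buffers and across linkers. Arrays, 3228 in all, were curated from the Consortium for Functional Glycomics database and kept only where the protein sequence was available.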
# [2] = molecular target: Gal(b1-3)GlcNAc(b1-2)Man(a1-3)[Gal(b1-3)GlcNAc(b1-2)Man(a1-6)]Man(b1-4)GlcNAc(b1-4)[Fuc(a1-6)]GlcNAc
# Outline: as §1
# [3] = molecular target: Gal(b1-3)GlcNAc(b1-2)Man(a1-3)[GlcNAc(b1-4)][Gal(b1-3)GlcNAc(b1-2)Man(a1-6)]Man(b1-4)GlcNAc(b1-4)GlcNAc
# Outline: as §1
# [4] = molecular target: Gal(b1-3)GlcNAc(b1-2)[Gal(b1-3)GlcNAc(b1-6)]Man(a1-6)[Gal(b1-3)GlcNAc(b1-2)Man(a1-3)]Man(b1-4)GlcNAc(b1-4)GlcNAc
# Outline: as §1
# [5] = molecular target: Gal(b1-3)GlcNAc(b1-3)Gal(b1-3)GlcNAc
# Outline: as §1
# [6] = molecular target: Gal(b1-3)GlcNAc(b1-3)Gal(b1-4)Glc
# Outline: as §1
# [7] = molecular target: Gal(b1-3)GlcNAc(b1-3)Gal(b1-4)GlcNAc
# Outline: as §1
# [8] = molecular target: Gal(b1-3)GlcNAc(b1-3)Gal(b1-4)GlcNAc(b1-2)Man(a1-3)[Gal(b1-3)GlcNAc(b1-3)Gal(b1-4)GlcNAc(b1-2)Man(a1-6)]Man(b1-4)GlcNAc(b1-4)GlcNAc
# Outline: as §1
# [9] = molecular target: Gal(b1-3)GlcNAc(b1-3)Gal(b1-4)GlcNAc(b1-2)[Gal(b1-3)GlcNAc(b1-3)Gal(b1-4)GlcNAc(b1-6)]Man(a1-6)[Gal(b1-3)GlcNAc(b1-3)Gal(b1-4)GlcNAc(b1-2)Man(a1-3)]Man(b1-4)GlcNAc(b1-4)[Fuc(a1-6)]GlcNAc
# Outline: as §1
# [10] = molecular target: Gal(b1-3)GlcNAc(b1-3)Gal(b1-4)GlcNAc(b1-3)Gal(b1-4)GlcNAc(b1-2)[Gal(b1-3)GlcNAc(b1-3)Gal(b1-4)GlcNAc(b1-3)Gal(b1-4)GlcNAc(b1-6)]Man(a1-6)[Gal(b1-3)GlcNAc(b1-3)Gal(b1-4)GlcNAc(b1-3)Gal(b1-4)GlcNAc(b1-2)Man(a1-3)]Man(b1-4)GlcNAc(b1-4)[Fuc(a1-6)]GlcNAc
# Outline: as §1
# [11] = molecular target: Gal(b1-3)GlcNAc(b1-3)Gal(b1-4)GlcNAc(b1-6)[Gal(b1-3)GlcNAc(b1-3)]Gal(b1-4)Glc
# Outline: as §1
# [12] = molecular target: Gal(b1-3)GlcNAc(b1-3)Gal(b1-4)[Fuc(a1-3)]GlcNAc
# Outline: as §1
# [13] = molecular target: Gal(b1-3)GlcNAc(b1-3)Gal(b1-4)[Fuc(a1-3)]GlcNAc(b1-6)[Gal(b1-3)GlcNAc(b1-3)]Gal(b1-4)Glc
# Outline: as §1
# [14] = molecular target: Gal(b1-3)GlcNAc(b1-3)GalNAc
# Outline: as §1
# [15] = molecular target: Gal(b1-3)GlcNAc(b1-6)Gal(b1-4)GlcNAc
# Outline: as §1
# [16] = molecular target: Gal(b1-3)GlcNAc(b1-6)GalNAc
# Outline: as §1
# [17] = molecular target: Gal(b1-3)GlcNAc(b1-6)[Gal(b1-3)]GalNAc
# Outline: as §1
# Gal(b1-3)GlcNAc6S = molecular target: Gal(b1-3)GlcNAc6S
# Outline: as §1
# [18] = molecular target: Gal(b1-3)[Fuc(a1-4)]GlcNAc
# Outline: as §1
# [19] = molecular target: Gal(b1-3)[Fuc(a1-4)]GlcNAc(b1-2)Man
# Outline: as §1
# [20] = molecular target: Gal(b1-3)[Fuc(a1-4)]GlcNAc(b1-2)Man(a1-3)[Gal(b1-3)[Fuc(a1-4)]GlcNAc(b1-2)Man(a1-6)]Man(b1-4)GlcNAc(b1-4)[Fuc(a1-6)]GlcNAc
# Outline: as §1
# [21] = molecular target: Gal(b1-3)[Fuc(a1-4)]GlcNAc(b1-3)Gal(b1-3)[Fuc(a1-4)]GlcNAc
# Outline: as §1
# [22] = molecular target: Gal(b1-3)[Fuc(a1-4)]GlcNAc(b1-3)Gal(b1-4)[Fuc(a1-3)]GlcNAc
# Outline: as §1
# [23] = molecular target: Gal(b1-3)[Fuc(a1-4)]GlcNAc(b1-6)GalNAc
# Outline: as §1
# [24] = molecular target: Gal(b1-3)[GlcNAc(b1-6)]GalNAc
# Outline: as §1
# [25] = molecular target: Gal(b1-3)[Neu5Ac(a2-6)]GalNAc
# Outline: as §1
# [26] = molecular target: Gal(b1-3)[Neu5Ac(a2-6)]GlcNAc(b1-4)Gal(b1-4)Glc
# Outline: as §1
# [27] = molecular target: Gal(b1-3)[Neu5Ac(b2-6)]GalNAc
# Outline: as §1
# Gal(b1-4)Gal = molecular target: Gal(b1-4)Gal
# Outline: as §1
# [28] = molecular target: Gal(b1-4)GalNAc(a1-3)[Fuc(a1-2)]Gal(b1-4)GlcNAc
# Outline: as §1
# [29] = molecular target: Gal(b1-4)GalNAc(b1-3)[Fuc(a1-2)]Gal(b1-4)GlcNAc
# Outline: as §1
# Gal(b1-4)Glc = molecular target: Gal(b1-4)Glc
# Outline: as §1
# Gal(b1-4)Glc6S = molecular target: Gal(b1-4)Glc6S
# Outline: as §1
# Gal(b1-4)GlcNAc = molecular target: Gal(b1-4)GlcNAc
# Outline: as §1
# [30] = molecular target: Gal(b1-4)GlcNAc(a1-6)Gal(b1-4)GlcNAc
# Outline: as §1
# Gal(b1-4)GlcNAc(b1-2)Man = molecular target: Gal(b1-4)GlcNAc(b1-2)Man
# Outline: as §1
# [31] = molecular target: Gal(b1-4)GlcNAc(b1-2)Man(a1-3)Man(b1-4)GlcNAc(b1-4)GlcNAc
# Outline: as §1
binder,measurement,setting,value
B1,glycan array binding signal (z-score),[1],-0.037
same,glycan array binding signal (z-score),[2],-0.474
same,glycan array binding signal (z-score),[3],-0.314
same,glycan array binding signal (z-score),[4],0.113
same,glycan array binding signal (z-score),[5],0.152
same,glycan array binding signal (z-score),[6],-0.389
same,glycan array binding signal (z-score),[7],-0.431
same,glycan array binding signal (z-score),[8],-0.063
same,glycan array binding signal (z-score),[9],0.851
same,glycan array binding signal (z-score),[10],0.55
same,glycan array binding signal (z-score),[11],-0.632
same,glycan array binding signal (z-score),[12],-0.67
same,glycan array binding signal (z-score),[13],-0.619
same,glycan array binding signal (z-score),[14],-0.302
same,glycan array binding signal (z-score),[15],-0.07
same,glycan array binding signal (z-score),[16],-0.69
same,glycan array binding signal (z-score),[17],-0.034
same,glycan array binding signal (z-score),Gal(b1-3)GlcNAc6S,0.27
same,glycan array binding signal (z-score),[18],-0.297
same,glycan array binding signal (z-score),[19],2.23
same,glycan array binding signal (z-score),[20],0.558
same,glycan array binding signal (z-score),[21],-0.037
same,glycan array binding signal (z-score),[22],-0.245
same,glycan array binding signal (z-score),[23],0.201
same,glycan array binding signal (z-score),[24],-0.252
same,glycan array binding signal (z-score),[25],-0.079
same,glycan array binding signal (z-score),[26],-0.411
same,glycan array binding signal (z-score),[27],-0.611
same,glycan array binding signal (z-score),Gal(b1-4)Gal,1.01
same,glycan array binding signal (z-score),[28],-0.427
same,glycan array binding signal (z-score),[29],-0.639
same,glycan array binding signal (z-score),Gal(b1-4)Glc,-0.052
same,glycan array binding signal (z-score),Gal(b1-4)Glc6S,0.325
same,glycan array binding signal (z-score),Gal(b1-4)GlcNAc,-0.272
same,glycan array binding signal (z-score),[30],-0.631
same,glycan array binding signal (z-score),Gal(b1-4)GlcNAc(b1-2)Man,0.606
same,glycan array binding signal (z-score),[31],-0.45
